Data taken from the RNAGym collection of RNA variant scans (doi:10.7554/elife.90254).
Read counts are not given, so values of variants with three or more changes are uncertain.

B1: OR4K15 (parent)
chain: GUUAACGGUCAUAGGCCAUGGAAACUAGGAGCACCAUUUCGCUGCCAGUGAAGAAAUGAACAAAGAAAAUCUGGGCCAGGCAGGCAUCAAAAGAAAUAGUCUUGCGCUCAACCAGAAAGUCUGUAAUCAUUUUAAGGGUA

Variants of: B1
Assay: self-cleavage, relative activity (ratio to wild type); higher = more cleavage; in vitro, sequencing; the parent is a self-cleaving ribozyme

Variant | self-cleavage
A33G A63U A90G A118U U120A | 0.2
A33G A63U A91G A95G U127C U131A | 1.41
A33G A64C A82U | 0.12
A33G A64G A78G U87C A91G | 0.05
A33G A64G A135G | 1.15
A33G A64G U70C U100A U103C U120C U133C | 0.05
A33G A64G U130C | 0.48
A33G A64U A91G | 0.62
A33G A66G A94G U127A A140G | 1.81
A33G A66G U72C A140G | 0.25
A33G A66G U127C A135U U139C | 0.24
A33G A66U A68G | 0.2
A33G A66U A116G | 0.33
A33G A67G A134U | 0.94
A33G A68G G83A A114U U122C | 0.01
A33G A69G C112U | 0.01
A33G A69G U87C A140G | 1.2
A33G A78U A110U A129G U132C | 0.04
A33G A78U U130C | 0.09
A33G A82G A89G | 0
A33G A82G U103C | 1.47

Variant | self-cleavage
A33G A82U U100C U127C | 0.13
A33G A86C A111U | 0.02
A33G A89G A118C U120C | 0.3
A33G A89G U108C A117G | 0
A33G A90G A94U U122C | 0.17
A33G A90U U131C | 0.9
A33G A91G A94G A117G | 0.83
A33G A91G U120C U131A A140G | 0.31
A33G A94G A111U | 0.08
A33G A95G A140G | 1.1
A33G A111U U122A | 0.02
A33G A116G U131C | 0.14
A33G A116U U120C U131C U132C | 0.05
A33G A117G G136A | 1.08
A33G A117U A129U | 0.81
A33G A126U U139C | 0.68
A33G C40A G44A U100C | 1.55
A33G C40U A56G A134G | 0.14
A33G C40U A59G G80A | 0.08
A33G C40U A140G | 0.25
A33G C45G A116G | 0.63

Variant | self-cleavage
A33G C105A U127C U131C U139C | 0
A33G G41A A51U A125U | 1.06
A33G G44A A82U A116G | 0.03
A33G G50A A91G | 0.77
A33G G65U G115A | 0.05
A33G G106U A125U | 0.01
A33G U37A U100A | 0.77
A33G U37C A60G | 0.92
A33G U37C A92G A96U | 0.4
A33G U37C A96G | 0.66
A33G U37C U49C U122C | 0.33
A33G U38C A59U U122A A140U | 1.92
A33G U38C A67U G115A U131C | 0.04
A33G U39A A82U | 0.04
A33G U39A U43A A51G A69G A91G | 0.69
A33G U39C A91G A111G U124A | 0
A33G U39C A95G U139C | 1.9
A33G U39C A111G C113U | 0.02
A33G U39C U97A U120C | 0.23
A33G U43G U127A | 1.15
A33G U49A G50U | 0.17

Variant | self-cleavage
A33G U49C A89G U100C | 2.24
A33G U49C U124C | 0.33
A33G U49G G80A A89G U131C | 0.22
A33G U57C A68G A78G A91G | 0.04
A33G U57C A126G | 0.42
A33G U57C C113U | 0.03
A33G U57G U120G | 0.58
A33G U72A A110G U127A | 0.04
A33G U72C A118U U127C | 0.02
A33G U87C U102C | 0.9
A33G U102A U122C | 0.32
A33G U108A U122C | 0.01
A33G U108C A110U A125G | 0
A33U A36G U43C | 1.87
A33U A47G A51G | 0.78
A33U A52G U57A A63G | 1.52
A33U A52U A59G A68G U87C A96G | 2.04
A33U A55G A135G | 0.96
A33U A56G A60G A69G | 0.29
A33U A56G A118G A126G | 0.35
A33U A59U A69G C76A | 0.07
